# The whole screen tested about 150,000 compounds, of which about 540 (0.36%) showed an effect of 50% or more. The list shows a part of the results.
# Tested on: Plasmodium falciparum
# Test: Primary screen in NF54 nanoGlo assay, in single point, at 2uM, 72h; a lower Z score goes with more inhibition
# Type: functional, Erythrocyte
# Conditions: timepoint 72 hour
Structure (SMILES),% Inhibition,Z score
COc1ccc(C(=O)N2C[C@@H]3OCC(=O)N(CC4CC4)[C@@H]3C2)cc1,-11%,1.41
Cc1nn(C(C)C)cc1C(=O)N1CCC2(CN(C)C2)C1,-4%,0.76
Cc1ccc(CC(=O)N2C[C@@H](COc3ccncc3)[C@H](C(N)=O)C2)cc1,-3%,0.43
O=C(C#Cc1ccc2c(c1)OCO2)NCCNc1ccccc1,1%,-0.22
O=C(CN1CCN(c2ccc(F)cc2)C1=O)NC[C@H]1Cc2ccccc2CO1,1%,-0.15
CCc1nc(C)cc(N2CCC3(NC(=O)C4(F)CCCC4)CCCC23)n1 (stereo unspecified),16%,-2.02
Cn1nc(C2CCCCC2)cc1NC(=O)CCc1cncc(F)c1,-8%,1.7
CS(=O)(=O)NCCc1ncnn1Cc1c(F)cccc1Cl,-2%,0.47
O=S(=O)(c1cccs1)N(CCn1ccc(C(F)(F)F)n1)C1CCCC1,19%,-2.39
O=C(CCN1CCC[C@H]1c1nc(C2CC2)no1)Nc1ccc2c(c1)CCC2,-14%,1.34
COCC1(NC(=O)[C@]2(c3ccc(OC)cc3)CC2(C)C)CCCC1,-4%,0.5
Cc1nc2c([nH]1)CN(C(=O)NC1CC(C)(C)CC(C)(C)C1)CC2,-11%,1.51
Cc1ccc(-c2cc(NS(=O)(=O)c3ccc(F)cc3)n([C@H]3CCS(=O)(=O)C3)n2)cc1,-1%,0.13
COc1ccc2oc(CNc3nnc(C(C)(C)C)o3)nc2c1,-8%,0.93
Cc1ccc2c(c1)OCCN2S(=O)(=O)c1ccc2c(c1)C(=O)NCC2,7%,-0.75
Cc1cnc(C)c(N2CCC3(CCC(=O)N([C@H]4CCN(C)C4)C3)CC2)n1,-12%,2.29
CCC(C)(C)C(=O)N1CCC[C@@H]1CCc1ncc(C)n1C(C)C,36%,-4.8
Cc1cnc(CN2C[C@]3(CCCN(C(=O)c4nc(C)c[nH]4)C3)CCC2=O)cn1,-13%,2.47
Cn1c(=O)c2c(-c3ccccc3F)n3c(c2n(C)c1=O)[C@@H](c1cccc(Cl)c1)Nc1ccccc1-3,14%,-1.78
Cc1ccc(CC2(N[C@@H](C)CN(C)CCO)CC2)cc1,2%,-0.39
Cc1ccc(C(=O)N(C(C)C)C(C)C)o1,-29%,3.42

Structure (SMILES),% Inhibition,Z score
CC(C)c1ncc(C(=O)NCc2cccnc2-n2cnc3ccccc32)c(=O)[nH]1,-8%,1.66
CC(C)n1cccc1C(=O)N1CCC[C@H]1C(=O)N1CCCCC1,-12%,2.31
CCOC1CC(CCNC(=O)Nc2nnc(-c3ccsc3)s2)C1 (stereo unspecified),7%,-0.74
COC1CCN(C(=O)N[C@H](c2ccccc2)c2cc3ccccc3o2)CC1,-4%,0.65
Cc1noc(C)c1CN[C@@H](C)c1nc(C2CCCC2)no1,-4%,0.6
Cc1ccc([C@H](CNC(=O)c2cnc(-c3cccnc3)nc2O)N(C)C)o1,-9%,0.84
C[C@]1(O)CCCN(C(=O)c2nc(=O)[nH]c3ccccc23)CC1,5%,-1.09
C[C@@H]1Oc2ccc(NC(=O)c3c(F)cccc3F)cc2CN(CCc2ccc(F)cc2)C1=O,-8%,0.9
Cc1cc(COC(=O)c2sc(C)nc2C)nc(C)n1,-5%,0.59
COc1ccc(OC)c(-c2n[nH]cc2CN2CC(F)(F)C[C@H]2CN2CCOCC2)c1,-7%,1.17
Cc1n[nH]c(=O)c2cc(S(=O)(=O)NCc3ccco3)cn12,-5%,0.69
O=C(N[C@H]1C[C@@](CO)(c2ccccc2)C1)c1nnc(-c2ccccc2)o1,1%,-0.08
Cn1nccc1CCNC(=O)N1CC(C)(C)OC(C)(C)C1,4%,-0.49
CCNc1nc(C(=O)N2CCOCC23CCC3)cs1,9%,-1.46
CS(=O)(=O)N1CCC[C@H](CNC(=O)c2cccc(-c3cccc(N)n3)c2)C1,-8%,1.51
O=C(NCc1cccnc1)Nc1ccc(-c2nccn2C(F)F)cc1,-3%,0.52
COc1ccc(-c2cn3c(-c4ccccc4)c(-c4ccccc4)nc3n2-c2cccc(O)c2)cc1,-4%,0.66
COc1ccc(NC(=O)c2cccc(N(C)S(C)(=O)=O)c2C)cc1,-10%,1.42
O=C(c1c(F)cccc1Cl)N1CCC[C@H](Oc2ccncn2)C1,-1%,0.2
COCc1cc(C(=O)NC2C(C)(C)C(NC(=O)c3cc(COC)on3)C2(C)C)no1 (stereo unspecified),-9%,1.25
CCc1ccc(NC(=O)Cc2n[nH]c(=O)c3cc(-c4ccc(F)cc4)nn23)cc1,-17%,2.3

Structure (SMILES),% Inhibition,Z score
CC(C)(C)c1noc(CNC(=O)c2cccc(-c3ccc4c(c3)OCC4)c2)n1,-2%,0.35
Cc1nn(CC2CC2)c(=O)n1-c1ccc(C(C)C)cc1,-4%,0.52
Nc1ncc(C(=O)N2CCC3(CC2)[C@H](O)C[C@@H]3O)c(C(F)(F)F)n1,-9%,1.16
C[C@@H](CN(CCC(=O)N1CCNCC1)C(=O)c1ccc(C(F)(F)F)cc1)c1ccccc1,1%,-0.17
CCC(CC)CS(=O)(=O)NC(=O)Cc1ccc(OC)cc1,-9%,1.22
Cc1nnc(N2CC3CCC(O)C3C2)o1 (stereo unspecified),0%,-0.02
CC1CCCCC1N(C)C(=O)CN(C)CCn1cnnc1 (stereo unspecified),2%,-0.21
COC(=O)[C@@H]1[C@H](C)Cc2ccccc2N1Cc1nnc(C)o1,5%,-0.55
Cc1ccccc1[C@]1(O)CCN(C(=O)c2nccn2C)C1,-4%,0.56
O=C(NCCc1cccs1)c1cc2n(n1)CCCO2,-18%,2.75
COC(=O)C1(NCc2cncc(C)c2)CCCCCC1,3%,-0.32
COc1ccccc1[C@H]1CN(Cc2ccc(N(C)C)nc2)C[C@@H]1C(=O)O,-12%,2.28
CC[C@H](NC(=O)c1ccc2c(c1)CCCC2)c1cnn(C)c1,-9%,1.25
CS(=O)(=O)[C@H]1CCCN(c2ccc(C#N)cc2Br)C1,-3%,0.37
CC(C)c1cc([C@@H]2CCCN2C(=O)c2nn(C)cc2Cl)on1,-16%,2.18
Cc1ccc([C@H](C(=O)Nc2ccc(C(C)C)cc2)N(Cc2ccco2)C(=O)Cc2c[nH]c3ccccc23)cc1,8%,-1.2
O=C1CC[C@H](C(=O)N2CC=C(c3cccc4ccccc34)C2)N1,-4%,0.5
CCC(C)(C)c1ccc(OCCCCNC[C@H](C)O)c(Cl)c1,-11%,1.23
O=C(N[C@H]1CCCc2ccccc21)c1cc(O)ncn1,-2%,0.41
CCc1ncc(NC(=O)N2CCCS(=O)(=O)C[C@H]2C2CC2)cn1,-13%,1.35
CN(C)C[C@H]1CN(C(=O)c2cccc(C(F)(F)F)n2)CCO1,-11%,1.03

Structure (SMILES),% Inhibition,Z score
CCOC1CC(O)(CNc2ncnc3ccsc23)C1(C)C (stereo unspecified),2%,-0.32
Cc1ccc2c(c1)N(C(=O)c1nccn3ccnc13)CCC2,5%,-0.58
CC(C)Oc1cncc(C(=O)N(C)Cc2nccn2C)c1,2%,-0.3
CN(CC(=O)N1CCN(C2CC2)c2cc(Cl)ccc21)S(C)(=O)=O,4%,-0.62
CCN(CC)C(=O)CNC(=O)N(C)CC1CCC1,-7%,0.95
COC[C@H](O)c1cccc(NC(=O)c2cc(C)sn2)c1,-1%,0.23
COCCn1cc(-c2cc(C)cc3nccn23)cn1,5%,-0.64
COc1ccc(CN2CCc3cc(OC)c(OC)cc3[C@@H]2CNC(=O)Cc2ccccc2)cc1,-3%,0.38
Cc1cc(Cc2nc(C3CC3)no2)n[nH]1,5%,-0.5
O=C(NCCN1CCCCC1)c1cc2n(n1)CCN(Cc1cccc(F)c1)C2=O,-5%,0.77
Nc1nnnn1CC(=O)N[C@H]1CCOC[C@@H]1Oc1cccc(F)c1,-11%,2.14
COc1ccc(CCC(=O)N2CCC3(CC2)C[C@@H](N2CCN(C(C)C)CC2)CCO3)cc1,-10%,1.1
Cc1cc(CNC(=O)N2C[C@H]3CC=CC[C@H]3C2)no1,-18%,3.11
CN1CCC(N(C)S(=O)(=O)C[C@H]2C[C@H]3CCCC[C@H]32)C1=O (stereo partly specified),-11%,1.63
CC(C)(C)OC(=O)N1CCC[C@@H]1CCNC(=O)C(c1ccccc1F)N1CCOCC1 (stereo partly specified),-8%,0.77
Cc1cc(NC(=O)c2c(F)cccc2Cl)nc(C(C)C)n1,-9%,1.11
COc1ccc(NC(=O)CCNS(=O)(=O)c2ccc(C)cc2)cc1OC1CCCC1,-4%,0.55
Cc1noc(C(=O)Nc2ccc(O)cc2)n1,-7%,0.84
Cc1nn(-c2ccc(N3CCOCC3)nn2)c(C)c1CCC(=O)N1CCN(c2ccccn2)CC1,-8%,1.6
Cc1ccccc1OCC(=O)NC[C@@](O)(c1ccco1)C1CC1,2%,-0.31

# From ChEMBL document CHEMBL4888484, “Replenishing the malaria drug discovery pipeline: Screening and hit evaluation of the MMV Hit Generation Library 1 (HGL1) against asexual blood stage Plasmodium falciparum ,using a nano luciferase reporter read-out” (2022)
